Where “and” joins values, the source holds several entries; their conditions need not be identical. Identical values can stand only once.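 Where inhibition never reached the appropriate level, the endpoint shown equals the highest concentration tested. Otherwise, values were interpolated linearly from a five-concentration, 48-hour dose response in 96-well plates. GI50: concentration for 50% inhibition of growth. At the TGI there is no net growth.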
System: NCI-H322M lung
Assay: NCI-60 cell line screen, 48 h

| Structure (SMILES) | GI50 [µM] | TGI |
| --- | --- | --- |
| O=C(N=Nc1c(O)[nH]c2ccccc12)c1oc2ccccc2c1CN1CCN(c2ccccc2)CC1 | 3.88 | 47.4 µM |
| Cc1cc(=O)[nH]c2cc(NC(=O)C(CCCN=C(N)N)NC(=O)OCc3ccccc3)ccc12 (configuration not stated) | – | > 100 µM |
| c1ccc(CN2CCC3(CC2)SSC2(CCN(Cc4ccccc4)CC2)SS3)cc1 | – | > 100 µM |
| CCCCc1ccc(-n2sc3ncc([N+](=O)[O-])cc3c2=O)cc1 | – | 46.1 µM |
| C[n+]1c2ccccc2n2c3ccccc3c(NCCc3ccccn3)c(C#N)c21 | – | 11.7 µM |
| O=C1C(=O)c2ccccc2C(O)=C1CCCc1ccc(C2CCCC2)cc1 | 8.42 | 43.9 µM |
| O=C(NNC(=S)Nc1ccc(Br)cc1)c1cc(-c2ccccc2)nc2ccccc12 | – | 61.2 µM |
| CCC/C(Cl)=N\OC(=O)Nc1cccc(C(F)(F)F)c1 | – | > 100 µM |
| c1cc(CSSCc2ccncc2)ccn1 | – | > 100 µM |
| NC(=O)c1ncn(CCN2CCN(C(=O)NCCCCCCNC(=O)N3CCN(CCn4cnc(C(N)=O)c4N)CC3)CC2)c1N | – | > 100 µM |
| CN(C)c1ccc(-c2c(C#N)c(O)n(NS(=O)(=O)c3ccccc3)c(=O)c2C#N)cc1 | – | > 100 µM |
| COc1cccc(NC(=O)C(C)(C)C)c1SSc1c(NC(=O)C(C)(C)C)cccc1OC | – | > 100 µM |
| Cn1cc(-c2csc(-c3cn(CCCCN4CCCCC4)c4ccc(F)cc34)n2)c2cccnc21 | 1.74 | 3.12 µM |
| COC1(OC)N=C(N)C2(C#N)C3(C(=O)N(C(C)C)N=C3C)C12C#N (configuration not stated) | – | > 100 µM |
| O=C(COc1ccc(OCC(=O)NNC2=NC(c3cc(F)c(Cl)cc3Cl)CS2)c(Cl)c1)NNC1=NC(c2cc(F)c(Cl)cc2Cl)CS1 (configuration not stated) | – | > 100 µM |
| Nc1nc2c(nnn2C2OC(CO)C(O)C2O)c(=O)[nH]1 (configuration not stated) | 2.14 | > 100 µM |
| COc1cc(/C=C/c2nc(N)nnc2C)cc(OC)c1OC | – | > 62.1 µM |
| CC(C)(C)OC(=O)NCCC(=O)NC1(c2cc3ccccc3s2)CCCCC1 | – | 47.5 µM |
| C=C1C(=O)O[C@@H]2[C@H]1CCC(C)=C1C=CC(=O)[C@]12C | – | 58.6 µM |
| COC(=O)C(Cc1ccccc1)NP(=O)(O)OCC1OC(n2cc(I)c(=O)[nH]c2=O)CC1O (configuration not stated) | – | > 100 µM |
| C[N+](C)(CCCCCC[N+](C)(C)CCCN1C(=O)c2cc3ccccc3cc2C1=O)CCCN1C(=O)c2cc3ccccc3cc2C1=O | > 37.5 | > 37.5 µM |
| Cn1c2ccccc2c(=O)c2c(O)cc3c(c21)CC(C1(C)CO1)O3 (configuration not stated) | – | 41.7 µM |
| O=C(O)CC1NC(/C(=C/c2ccccc2O)NC(=O)c2ccccc2)OC1=O (configuration not stated) | – | > 100 µM |
| COc1cc2c(cc1OC)CN1CCCc3cc(OC)c(OC)cc3C1C2 (configuration not stated) | – | > 100 µM |
| O=C(O)C1CCC(=O)N1S(=O)(=O)c1ccccc1 (configuration not stated) | – | > 100 µM |

| Structure (SMILES) | GI50 [µM] | TGI |
| --- | --- | --- |
| N=C(N)SCc1cc(Cl)cc(Cl)c1O | – | 57.2 µM |
| COC(=O)c1ccc(NCc2c(O)ccc(O)c2Br)cc1Cl | – | > 100 µM |
| O=C(NNCC(F)(F)F)c1ccncc1 | – | > 100 µM |
| CN(C)CCC(CCN(C)C)=NOC(=O)c1ccccc1 | – | > 100 µM |
| CNc1cc2nc3cc(NC)c(C)cc3cc2cc1C | 1.03 | 12.2 µM |
| C=C(C)C1CC=C(C)CC1 (configuration not stated) | > 100 | > 100 µM and 1820 µM |
| CCOC(=O)C1=c2[nH]c3cccc4cccc(c43)n2C(=O)CC1c1ccccc1 (configuration not stated) | – | > 100 µM |
| NC1(C(=O)O)CCc2ccc(N(CCCl)CCCl)cc2C1 (configuration not stated) | – | > 100 µM |
| COC(=O)c1c2c(cc3c1CC1(C3)Cc3cc4c(c(C(C)=O)c3C1)CCC4)C=CC2 (configuration not stated) | – | > 31.6 µM |
| Cc1c(-c2ccccc2)c(C#N)c2nnn(C3CCCCC3)c(=O)n12 | – | > 100 µM |
| COc1cccc(C2ON=C(c3ccccc3)N2C23CC4CC(CC(C4)C2)C3)c1 (configuration not stated) | – | > 10 µM |
| Cc1cc(S(=O)(=O)NC2=NC(c3ccccc3)c3cc(Cl)ccc3N2)c(S)cc1Cl (configuration not stated) | – | > 100 µM |
| CC(C)(CCN=C(N)Nc1ccccn1)c1ccc(C(F)(F)F)cc1 | 15.1 | 28.6 µM |
| CCOC(=O)C1=C(C)N(Cc2ccccc2)C(=O)C1CC#N (configuration not stated) | – | > 100 µM |
| COc1ccc(/C=C/C(=N/NC(=O)N/N=C(/C=C/c2ccc(OC)cc2)C(C)(C)CN2CCCCC2)C(C)(C)CN2CCCCC2)cc1 | – | 6.6 µM |
| c1ccc(-c2nnc(SCc3c[nH]c4ccccc34)n2-c2ccccc2)cc1 | – | > 100 µM |
| COc1cc(/C=C2\Oc3cc(OCCCN4CCCC4)ccc3C2=O)cc(OC)c1 | 12.9 | 25.6 µM |
| C/C(=N\NS(=O)(=O)c1ccc(C)cc1)c1cc2ccccc2n1C | – | > 100 µM |
| O=C(O)C1C2C=CC(C2)C1C(=O)O (configuration not stated) | > 100 | > 100 µM |
| COC(=O)C[CH2][Ge]([CH3])([CH3])[S]c1ccccc1 | > 100 | > 100 µM |
| COc1ccc(CNC(C)C(=O)O)cc1 (configuration not stated) | – | > 100 µM |
| COC(=O)N/N=C(\C(=O)Nc1cccc([N+](=O)[O-])c1)c1nc2ccc([N+](=O)[O-])cc2[nH]c1=O | – | > 100 µM |
| COc1c2c(cc3c1OCO3)C13C=CC(OC)CC1N(CC3)C2 (configuration not stated) | – | > 100 µM |
| COC(=O)C(CC(C)=O)CS(=O)(=O)CC(=O)C(=O)Nc1cccc([N+](=O)[O-])c1 (configuration not stated) | – | > 100 µM |
| COc1ccc(-c2nnc3n(Cc4ccccc4)c4ccccc4n3c2=O)cc1 | – | > 100 µM |

| Structure (SMILES) | GI50 [µM] | TGI |
| --- | --- | --- |
| CC(C)COC(=O)OC(=O)c1ccc(N(C)Cc2cnc3nc(N)nc(N)c3n2)cc1 | – | > 100 µM |
| CCOc1ccc2c(C)cc(=O)oc2c1 | – | > 100 µM |
| CC(=O)OC12c3ccccc3-c3ccccc3C1C(C(=O)O)C2(Cl)C(=O)O (configuration not stated) | – | > 10 µM |
| CC(=O)[CH-]C(=O)c1ccccc1.CC(=O)[CH-]C(=O)c1ccccc1.CC1(C)OCC(C2OC3OC(C)(C)OC3C2[O-])O1.CC1(C)OCC(C2OC3OC(C)(C)OC3C2[O-])O1.[Ti+4] (configuration not stated) | 26.8 | 67.4 µM |
| CO/C(=C/C(=O)C(Cl)(Cl)Cl)CC/C(=C\C(=O)C(Cl)(Cl)Cl)OC | – | > 100 µM |
| Cc1ccc(C2SCC(=O)N2c2ccc(-c3ccc(-n4c(-c5ccccc5)nc5ccccc5c4=O)cc3)cc2)cc1 (configuration not stated) | – | > 100 µM |
| CC1(c2cccc(N)c2)C2C(=O)NC(=O)C1C(=O)NC2=O (configuration not stated) | – | > 100 µM |
| CN1CC[C@]2(c3cccc(O)c3)CC(=O)/C(=C/c3ccccc3)[C@H]1C2 | 3.28 | 12.5 µM |
| O=[N+]([O-])c1ccc(Sc2nc(Cl)nc(NC3CCCC3)n2)cc1 | > 10 | > 10 µM |
| O=C(NNc1ccc(F)cc1)C1CCC(CNS(=O)(=O)c2ccc(Cl)c(Cl)c2)CC1 (configuration not stated) | 9.55 | > 50 µM |
| Cc1ccc(S(=O)(=O)N2c3ccccc3[C@H]3CCC=C[C@H]32)cc1 | – | > 100 µM |
| Cc1cc2c(C(C)C)c(O)c(O)c(C=NCCO)c2c(O)c1-c1c(C)cc2c(C(C)C)c(O)c(O)c(C=NCCO)c2c1O | – | 15 µM |
| c1ccc(N=c2nc(N3CCOCC3)ss2)cc1 | – | > 100 µM |
| C=C1CCC2C3(C)COC(c4c(OC)cccc4OC)OC3CCC2(C)C1C/C=C1/C(=O)OCC1O (configuration not stated) | 7.34 | 23.4 µM |
| CC(=O)Nc1ccc(-c2nc3ccccc3s2)cc1C | – | > 100 µM |
| C=C1COC(O)(C2OCOC(C3CC(=O)NC(=O)C3)C2O)C1C (configuration not stated) | 0.00302 | 0.0369 µM and 0.0555 µM |
| CC1=C(C(=O)Nc2ccc3[nH]ncc3c2)C(c2ccc(Cl)c(Cl)c2)CC(=O)N1 (configuration not stated) | > 25 | > 25 µM |
| CN(C)CC1CCC/C(=C\c2ccc(OC(=O)/C=C/c3ccccc3)cc2)C1=O (configuration not stated) | – | 21.1 µM |
| C[N+](C)(C)/N=C/c1ccc(O)c(O)c1 | – | > 100 µM |
| COc1ccc2c(c1)[n+]([O-])c(-c1ccc(Br)cc1)c(N)[n+]2[O-] | – | 96 µM |
| Cc1ccc(NCC(=O)N2CC(=O)Nc3ccccc32)cc1 | – | > 100 µM |
| O=c1oc2ccccc2c(O)c1/C=N/C(=S)NCc1ccccc1 | – | > 100 µM |
| Nc1ccccc1NC(=O)c1ccc(CN2CCC/C(=C\c3ccccn3)C2=O)cc1 | 2.81 | > 100 µM |
| CCCC(N)C(=O)c1ccccc1 (configuration not stated) | – | > 100 µM |
| O=C(Nc1ccc(Sc2ccc(N=Nc3c(O)c(S(=O)(=O)O)cc4cc(S(=O)(=O)O)ccc34)cc2)cc1)c1ccc(N=Nc2c(O)ccc3c(S(=O)(=O)O)cc(S(=O)(=O)O)cc23)cc1 | – | > 100 µM |

| Structure (SMILES) | GI50 [µM] | TGI |
| --- | --- | --- |
| N#CCOc1ccc(/C=C/C(=O)c2ccc(Cl)cc2)cc1 | – | > 100 µM |
| COC(=O)C1(C(=O)OC)N=C(C)OC1c1ccccn1 (configuration not stated) | – | > 100 µM |
| CC(=O)C=NCC(=O)O | – | > 100 µM |
| COC(CC1(/C=C/O[Si](C(C)C)(C(C)C)C(C)C)C(=O)N(COCC[Si](C)(C)C)c2ccccc21)OC (configuration not stated) | – | > 100 µM |
| COc1ccc(N2C(=O)c3c(c4[nH]c5ccc(OC)cc5c4c4ccc(C(C)(C)C)cc34)C2=O)cc1 | – | > 100 µM |
| Clc1cc2c(nn1)Nc1ccccc1S2 | > 100 | > 100 µM |
| O=C(/C=C/c1ccccc1Cl)c1cccc2ccccc12 | – | 28.2 µM |
| O=[N+]1ON=C(c2ccccc2)C1=C1C(c2c(-c3ccccc3)no[n+]2[O-])=NON1[O-] | – | 91.5 µM |
| O=c1c2cccc(F)c2sc2c(N3CCNCC3)nc3ccccc3c12 | 1.59 | 2.95 µM |
| Cc1[nH]n(C(=N)N)c(=O)c1CCO | – | > 100 µM |
| CCCCCCCCCCC/C=C\C[C@H](O)C/C=C1/C(=O)C=C[C@@H]1C/C=C\CCCC(=O)OC | 4.3 | 15.9 µM |
| O=C1C(Cl)C2(CC(/C=C/c3ccccc3O)=NN2c2cccc(S(=O)(=O)O)c2)N1c1nc2ccccc2s1 (configuration not stated) | – | > 100 µM |
| Nn1c(CCCCCCCCc2nnc(COc3ccccc3)n2N)nnc1COc1ccccc1 | – | > 100 µM |
| O=C1CCCC(=O)N1n1c(Cc2ccccc2)n[nH]c1=O | – | > 100 µM |
| C[C@]12CCC[C@H](O)[C@H]1C[C@H](CO)CC2 | – | > 100 µM |
| Cc1ccc(/C=C/C(=N/N=C(N)N)c2ccccc2)cc1 | 6.87 | 21.1 µM |
| OC(c1cc2ccccc2[nH]1)C1(c2cccnc2)SCCCS1 (configuration not stated) | – | > 100 µM |
| N.N.O=P([O-])([O-])CN(CCN(CP(=O)([O-])[O-])CP(=O)([O-])[O-])CP(=O)([O-])[O-].[Pt+2] | > 100 | > 100 µM |
| CCC(CCC(C)C1CCC2C3CC=C4CC(OC5OC(CO)C(O)C(O)C5O)CCC4(C)C3CCC12C)C(C)C (configuration not stated) | – | > 100 µM |
| COc1cc2oc(-c3ccc(O)cc3O)c(CC=C(C)C)c(=O)c2c(O)c1/C=C/C(C)C | – | 16.5 µM |
| CC[C@@H](C(=O)[C@H](C)[C@H](O)[C@@H](C)[C@H]1O[C@H]([C@@H](CC)C(=O)O)CC[C@H]1C)C1O[C@]2(C=C[C@@H](O)[C@]3(CC[C@@](C)([C@H]4CC[C@](O)(CC)[C@H](C)O4)O3)O2)[C@H](C)C[C@@H]1C (some centres not stated) | 1.87 | 10.8 µM |
| O=C(CC1(O)C(=O)Nc2ccccc21)c1ccc(F)cc1 (configuration not stated) | – | > 100 µM |

— PubChem BioAssay (NCI)
